# Assay results reported in the supplement of paper PMC10502849.
# Counter-ions that a name gives are not always drawn. This is one part of the list. Single values are uncertain, as repeats are few or missing.
# Tests used:
# [1] = system: H9 teratoma-derived LAM model cells, TSC2-/-; assay: percent SyTOX+ dead cells; higher = more cytotoxic; conditions: 5 µM, treatment time 72 h, culture: 3D hyaluronic acid hydrogel
# [2] = system: H9 teratoma-derived LAM model cells, WT; assay: percent SyTOX+ dead cells; higher = more cytotoxic; conditions: 5 µM, treatment time 72 h, culture: 3D hyaluronic acid hydrogel, genotype: WT
# [3] = system: H9 teratoma-derived LAM model cells, TSC2-/-; assay: percent of cells invaded past median invasion distance of vehicle control; LAM is lymphangioleiomyomatosis; the cells come from teratomas of the human stem cell line H9; higher = more invasion; extreme values may be limits of the assay; conditions: 5 µM, treatment time 72 h, culture: 3D hyaluronic acid hydrogel
# [4] = system: H9 teratoma-derived LAM model cells, WT; assay: as above; conditions: 5 µM, treatment time 72 h, culture: 3D hyaluronic acid hydrogel, genotype: WT
# 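Wherever percent SyTOX+ dead cells is given: cells seeded atop a hyaluronic acid gel crosslinked via MMP-cleavable peptides, containing vitronectin peptides and methylcellulose, imaged live by high-content microscopy with automated analysis, one technical replicate per compound.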
# 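Wherever percent of cells invaded past median invasion distance of vehicle control is given: live cells imaged by high content microscopy and scored with in-house automated image analysis, one technical replicate per compound in each genotype and rapamycin condition.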
SMILES,percent SyTOX+ dead cells ([1]; rapamycin 0 nM) [%],percent SyTOX+ dead cells ([1]; rapamycin 20 nM) [%],percent SyTOX+ dead cells ([2]; rapamycin 0 nM) [%],percent SyTOX+ dead cells ([2]; rapamycin 20 nM) [%],percent ([3]; rapamycin 0 nM) [%],percent ([3]; rapamycin 20 nM) [%],percent ([4]; rapamycin 0 nM) [%],percent ([4]; rapamycin 20 nM) [%]
COc1cc(N2CCC(N3CCN(C)CC3)CC2)ccc1Nc1ncc(Cl)c(Nc2ccccc2S(=O)(=O)C(C)C)n1,25.8,39.7,75.2,75.4,0,17.2,0,0
Cc1cnc(CNC(=O)c2c(=O)c3ccc(N4CCCN(C)CC4)nc3n3c2sc2ccccc23)cn1,11.8,10.3,16.2,14.6,44.7,47.4,55.9,68.9
CC[C@H](Nc1ncnc2[nH]cnc12)c1nc2cccc(F)c2c(=O)n1-c1ccccc1,6.03,2.67,21.9,16.9,37.2,55.6,38.7,20.2
O=C(NOCC1CC1)c1cc(Br)c(F)c(F)c1Nc1ccc(I)cc1Cl,6.46,2.73,8.44,4.87,33.4,39.1,44.6,39.8
N#Cc1ccc(C(c2ccc(C#N)cc2)n2cncn2)cc1,16,12.5,10.4,11.5,54.7,29.7,47,38.3
Cc1cccc(-c2[nH]c(C(C)(C)C)nc2-c2ccc3nccnc3c2)n1,4.41,5.83,9.28,13.5,92.5,82.9,80.6,29.7
N#CCc1ccc(Nc2nc(Nc3cc(C4CCC4)[nH]n3)c3ccccc3n2)cc1,43.9,34.5,56.3,52.8,0.65,21.8,0,0
CN(c1ccccc1CNc1nc(Nc2ccc3c(c2)CC(=O)N3)ncc1C(F)(F)F)S(C)(=O)=O,34.1,22.4,37,38.1,31.7,98.8,24,47
O=S(=O)(c1cccc2c(Cl)cccc12)N1CCCNCC1 [ML 9 hydrochloride],12.3,15.1,13.4,18.8,29.2,14.4,32.1,26.1
Cc1c(NC(=O)OC[C@@H]2COCCN2)cn2ncnc(Nc3ccc4c(cnn4Cc4cccc(F)c4)c3)c12,9.62,11.4,20,11.8,19.2,19.2,15.5,16
O=C1NCCCc2c1oc1ccc(O)cc21,8.4,4.44,23.7,18.7,29.2,19.3,0,10.3
C=CCn1c(=O)c2cnc(Nc3ccc(N4CCN(C)CC4)cc3)nc2n1-c1cccc(C(C)(C)O)n1,23.6,22.5,32.4,27,57.6,36,8.45,11.7
"CCOC(=O)c1ccc(OC(=O)CCCCCN=C(N)N)cc1 [Gabexate mesylate, FOY]",34.2,39.5,37.6,33,35.5,29.3,41.8,60.2
CS(=O)(=O)c1ccc(-c2cnc(N)c(C(=O)Nc3ccccc3)n2)cc1,1.54,8.55,6.76,5.64,48.9,39.5,59.7,12.4
"O=C(O)c1ccc(O)c2ncccc12 [IOX 1, 5-carboxy-8HQ, IOX-1]",15,13.5,23.6,24.8,70.6,64.1,36.6,32.2
O=C(CCCCCCC(=O)Nc1cccnc1)NO,40.5,46,37.3,47.7,6.75,1.39,4.11,7.17
NCc1ccc(Nc2ncc(F)c(Nc3ccccc3)n2)cc1 [Dianilinopyrimidine_01],15.6,8.25,13.5,16.6,67.9,99,65.2,67.9
O=C(c1ccc(C(=O)N2CCC(N3CCCC3)CC2)c(Nc2ccccc2)c1)N1CCC(N2CCCC2)CC1,20.4,23.2,23.9,19.1,5.93,3,0,0.89
CC(C)N(CCCNC(=O)Nc1ccc(C(C)(C)C)cc1)C[C@H]1O[C@@H](n2cc(Br)c3c(N)ncnc32)[C@H](O)[C@@H]1O,27.6,29.2,28.1,36.8,17.5,3.85,22,5.33
O=C(C=Cc1ccccc1)NC(NC(=S)Nc1ccc(Cl)cc1)C(Cl)(Cl)Cl (configuration not stated),13.5,10.1,18.1,13.3,76.8,46.6,15,34.7
N#C/C(=C(/N)Sc1ccc(N)cc1)c1ccccc1C(F)(F)F,33.8,13,9.43,12.7,49.6,35.4,1.26,6.35
"CN1CCN(c2ccc3nc(-c4c(N)c5c(F)cccc5[nH]c4=O)[nH]c3c2)CC1 [Dovitinib, CHIR-258, TKI-258, GFKI-258]",39.8,30.6,62.6,49.8,12.3,9.09,3.87,3.2

SMILES,percent SyTOX+ dead cells ([1]; rapamycin 0 nM) [%],percent SyTOX+ dead cells ([1]; rapamycin 20 nM) [%],percent SyTOX+ dead cells ([2]; rapamycin 0 nM) [%],percent SyTOX+ dead cells ([2]; rapamycin 20 nM) [%],percent ([3]; rapamycin 0 nM) [%],percent ([3]; rapamycin 20 nM) [%],percent ([4]; rapamycin 0 nM) [%],percent ([4]; rapamycin 20 nM) [%]
Cc1ccc(NC(=O)c2cccc(N(C)C)c2)cc1NC(=O)c1ccc(O)cc1,16.3,9.42,35,14,47.4,38.2,4.12,8
COc1nccc(-c2c(-c3ccc(F)cc3)ncn2C2CCC(O)CC2)n1 (configuration not stated),6.6,14.1,12.2,6.67,25,1.56,8.14,9.33
CCc1cc(-c2oncc2-c2ccc(OC)cc2)c(O)cc1OC,42.3,34.6,60,10,83.1,61.4,12.5,10
"CN[C@@H](C)C(=O)N[C@H]1CN(C(=O)CC(C)C)CC[C@H]2CC[C@@H](C(=O)NC(c3ccccc3)c3ccccc3)N2C1=O [AT-406, Debio-1143; SM-406 (former code)]",20.5,11.7,13.2,9.24,58.6,37.6,43.9,47.5
Nc1nccc(Oc2ccc(NC(=O)c3c[nH]cc(-c4ccc(F)cc4)c3=O)cc2F)c1Cl,10,12.8,22.8,37.2,46.2,75,17.3,7.28
OCCn1cc(-c2ccc3c(c2)CC/C3=N\O)c(-c2ccncc2)n1,12.2,11.9,16.4,11.5,20.5,34.7,18.8,35.4
"Cc1cncc2cccc(S(=O)(=O)N3CCCN(C(=O)CN)C[C@@H]3C)c12 [H 1152, Glycyl dihydrochloride]",28.7,38.9,53.6,43.4,0,0,1.12,0.53
CNC(=O)c1ccccc1Sc1ccc2c(/C=C/c3ccccn3)n[nH]c2c1,19.4,18.9,16.9,6.02,6.9,42.8,4.24,5.26
CNC(=O)c1ccc(N2C(=S)N(c3ccc(C#N)c(C(F)(F)F)c3)C(=O)C2(C)C)cc1F,7.08,12.9,6.67,17.6,66.8,22.4,48.4,48.4
Cc1cc(Nc2cc(C)c(C#N)c(NC(C)CCCC(C)(C)O)n2)n[nH]1 (configuration not stated) [TC-A 2317 hydrochloride],34.9,44.9,69.9,54.9,3.97,6.52,0.68,2.23
C=CC(=O)Nc1cccc(Oc2nc(Nc3ccc(N4CCN(C)CC4)cc3)ncc2Cl)c1,46.3,36.8,63.4,59.9,38,0.58,0.3,0
N#Cc1c(NC(=O)c2cccc3ccccc23)sc2c1CCCC2,40.8,39,36,40.6,3.2,0.56,7.36,8.49
CC(C)c1ccc(/C=N/NC(=O)c2ccc(O)cc2)cc1,5.24,1.77,4.95,0.53,81.2,18.6,45.5,34.2
COc1cc(Nc2ncc(F)c(Nc3ccc4c(n3)NC(=O)C(C)(C)O4)n2)cc(OC)c1OC,55.9,41.2,56.2,51.2,7.09,22.1,10.9,0.48
O=C1NC(=O)/C(=C/c2ccc3nccc(-c4ccncc4)c3c2)S1,25,17.5,36,41,87.5,4.12,20,1.05
Cc1[nH]c(/C=C2\C(=O)Nc3ccc(S(=O)(=O)N(C)c4cccc(Cl)c4)cc32)c(C)c1C(=O)N1CCN(C)CC1,71.8,69.8,53.9,42.7,2.29,2.33,4.9,3.51
O=S(=O)(NCC1CC1)c1ccc(Nc2nccc(N3CCCc4cc(O)ccc43)n2)cc1 [Pyrintegrin],37.5,38.8,75.8,74.2,0,0,1.52,0
NC(=O)c1ccc2[nH]ccc2c1,4.78,5.33,17.9,18.2,54.5,34.3,39.6,37.1
"COc1cc2ncnc(Nc3ccc(F)c(Cl)c3)c2cc1OCCCN1CCOCC1 [Gefitinib, Iressa, ZD1839]",9.14,16.5,13.9,18.2,16.8,26.1,3.28,5.33
COc1cc2ncn(-c3cc(OCc4ccccc4C(F)(F)F)c(C(N)=O)s3)c2cc1OC,9.84,14.5,5.5,8.57,7.87,17.3,9.63,20.6
O=C(COc1cccc2c(=O)[nH]ccc12)c1ccccc1,2.19,3,4.47,7.56,54,38.2,45.4,46.2
COc1ccc(CCC(=O)Nc2nc3ccc(Cl)cc3s2)cc1OC,19.2,19.7,22.1,19.6,57.2,35.8,27.9,18.9
